Some of the results follow. Most values come without repeats; read them as rough.
Assays:
Assay in all cases: cell count relative to DMSO control; melanoma cells; higher = more viable cells
Conditions in all cases: library dose: low library concentration; 72 h
WM115 = test system: WM115
WM1716 = test system: WM1716
WM1745 = test system: WM1745
WM3526 = test system: WM3526
WM3619 = test system: WM3619
WM451Lu = test system: WM451Lu
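Further: cell number obtained by counting DAPI-stained nuclei in high-throughput microscope images with image analysis software, screen run in 1,536-well plates.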

Row | Compound | cell count (WM115) [%] | cell count (WM1716) [%] | cell count (WM1745) [%] | cell count (WM3526) [%] | cell count (WM3619) [%] | cell count (WM451Lu) [%]
1 | CCN(CC)CCNC(=O)c1c(C)[nH]c(/C=C2\C(=O)Nc3ccc(F)cc32)c1C [sunitinib] + Cc1cc(N2CCOCC2)cc2[nH]c(-c3c(NC[C@@H](O)c4cccc(Cl)c4)cc[nH]c3=O)nc12 [BMS536924] (first compound 0.4 µM, partner dose 0.2 µM) | 108 | 124 | 62.5 | 74 | 91.3 | 84.3
2 | C[C@]1(O)C[C@@H](c2nc(-c3ccc4ccc(-c5ccccc5)nc4c3)c3c(N)nccn32)C1 + CC(C)CCN1c2nc(Nc3cc(F)c(O)c(F)c3)ncc2N(C)C(=O)C1C [BID1870] (first compound 0.4 µM, partner dose 0.2 µM) | 102 | 107 | 73.7 | 85.5 | 107 | 107
3 | Cn1cnc2c(F)c(Nc3ccc(Br)cc3Cl)c(C(=O)NOCCO)cc21 [selumetinib] + NC(=O)c1ccc(N(C(N)=O)c2c(F)cccc2F)nc1-c1ccc(F)cc1F [VX702] (first compound 0.015 µM, partner dose 0.4 µM) | 90.1 | 114 | 81.2 | 64.7 | 87.1 | 92.1
4 | C[C@]1(O)C[C@@H](c2nc(-c3ccc4ccc(-c5ccccc5)nc4c3)c3c(N)nccn32)C1 + C=CCn1c(=O)c2cnc(Nc3ccc(N4CCN(C)CC4)cc3)nc2n1-c1cccc(C(C)(C)O)n1 [MK1775] (first compound 0.4 µM, partner dose 0.02 µM) | 84.3 | 97.2 | 45.5 | 70.7 | 88 | 111
5 | CCN(CC)CCNC(=O)c1c(C)[nH]c(/C=C2\C(=O)Nc3ccc(F)cc32)c1C [sunitinib] + NCC(=O)Nc1ccc(-n2nc(C(F)(F)F)cc2-c2ccc3c(ccc4ccccc43)c2)cc1 [OSU03012] (first compound 0.4 µM, partner dose 1 µM) | 83.5 | 129 | 73.7 | 43.1 | 93.7 | 67.2
6 | COc1cc([C@@H]2c3cc4c(cc3[C@@H](O[C@@H]3O[C@@H]5CO[C@@H](C)O[C@H]5[C@H](O)[C@H]3O)[C@H]3COC(=O)[C@H]23)OCO4)cc(OC)c1O [etoposide] + COc1cc2c(Oc3ccc4[nH]c(C)cc4c3F)ncnc2cc1OCCCN1CCCC1 [cediranib] (first compound 0.02 µM, partner dose 0.4 µM) | 101 | 99.5 | 98.9 | 87.1 | 86.9 | 83.9
7 | Cn1cnc2c(F)c(Nc3ccc(Br)cc3Cl)c(C(=O)NOCCO)cc21 [selumetinib] + Cc1cc(N2CCOCC2)cc2[nH]c(-c3c(NC[C@@H](O)c4cccc(Cl)c4)cc[nH]c3=O)nc12 [BMS536924] (first compound 0.015 µM, partner dose 0.2 µM) | 83.3 | 113 | 76.3 | 70.7 | 64.7 | 108
8 | CCN(CC)CCNC(=O)c1c(C)[nH]c(/C=C2\C(=O)Nc3ccc(F)cc32)c1C [sunitinib] + O=C(Nc1ccccc1)c1cc([N+](=O)[O-])ccc1Cl [GW9662] (first compound 0.4 µM, partner dose 2 µM) | 100 | 110 | 80.9 | 83.5 | 105 | 110
9 | C[C@]1(O)C[C@@H](c2nc(-c3ccc4ccc(-c5ccccc5)nc4c3)c3c(N)nccn32)C1 + C[C@@H](Oc1cc(-c2cnn(C3CCNCC3)c2)cnc1N)c1c(Cl)ccc(F)c1Cl [Crizotinib] (first compound 0.4 µM, partner dose 0.2 µM) | 104 | 92 | 86.3 | 81.4 | 100 | 91.2
10 | C[C@]1(O)C[C@@H](c2nc(-c3ccc4ccc(-c5ccccc5)nc4c3)c3c(N)nccn32)C1 + OCCn1cc(-c2cnc3nnn(Cc4ccc5ncccc5c4)c3n2)cn1 [PF04217903] (first compound 0.4 µM, partner dose 1 µM) | 111 | 102 | 73.1 | 87.1 | 65.1 | 85.1
11 | Cn1cnc2c(F)c(Nc3ccc(Br)cc3Cl)c(C(=O)NOCCO)cc21 [selumetinib] + O=C(Nc1ccccc1)c1cc([N+](=O)[O-])ccc1Cl [GW9662] (first compound 0.015 µM, partner dose 2 µM) | 96.8 | 109 | 89.8 | 56.3 | 66.9 | 100
12 | Cn1cnc2c(F)c(Nc3ccc(Br)cc3Cl)c(C(=O)NOCCO)cc21 [selumetinib] + COc1cc(Nc2ncc(F)c(Nc3ccc4c(n3)NC(=O)C(C)(C)O4)n2)cc(OC)c1OC [Tamatinib] (first compound 0.015 µM, partner dose 0.4 µM) | 78.8 | 94.2 | 55.5 | 60.2 | 79.2 | 92.4
13 | Cn1cnc2c(F)c(Nc3ccc(Br)cc3Cl)c(C(=O)NOCCO)cc21 [selumetinib] + CO[C@H]1C[C@@H]2CC[C@@H](C)[C@@](O)(O2)C(=O)C(=O)N2CCCC[C@H]2C(=O)O[C@H]([C@H](C)C[C@@H]2CC[C@@H](OCCO)[C@H](OC)C2)CC(=O)[C@H](C)/C=C(\C)[C@@H](O)[C@@H](OC)C(=O)[C@H](C)C[C@H](C)/C=C/C=C/C=C/1C [everolimus] (first compound 0.015 µM, partner dose 0.02 µM) | 68.3 | 79.9 | 75.6 | 58.9 | 64 | 83.1
14 | COc1cc([C@@H]2c3cc4c(cc3[C@@H](O[C@@H]3O[C@@H]5CO[C@@H](C)O[C@H]5[C@H](O)[C@H]3O)[C@H]3COC(=O)[C@H]23)OCO4)cc(OC)c1O [etoposide] + CC(C)CCN1c2nc(Nc3cc(F)c(O)c(F)c3)ncc2N(C)C(=O)C1C [BID1870] (first compound 0.02 µM, partner dose 0.2 µM) | 80.6 | 104 | 96.5 | 79.5 | 87.5 | 91.1
15 | C[C@]1(O)C[C@@H](c2nc(-c3ccc4ccc(-c5ccccc5)nc4c3)c3c(N)nccn32)C1 + Nc1ncn([C@H]2C[C@H](O)[C@@H](CO)O2)c(=O)n1 [decitabine] (first compound 0.4 µM, partner dose 0.1 µM) | 96.2 | 84.3 | 74.9 | 93 | 112 | 95.3
16 | CCN(CC)CCNC(=O)c1c(C)[nH]c(/C=C2\C(=O)Nc3ccc(F)cc32)c1C [sunitinib] + CCc1ccc(CCOc2ccc(CC3SC(=O)NC3=O)cc2)nc1 [pioglitazone] (first compound 0.4 µM, partner dose 2 µM) | 101 | 141 | 85 | 87.8 | 154 | 103
17 | Cn1cnc2c(F)c(Nc3ccc(Br)cc3Cl)c(C(=O)NOCCO)cc21 [selumetinib] + Cc1ccc(NC(=O)c2cccc(N(C)C)c2)cc1NC(=O)c1ccc(O)cc1 [ZM336372] (first compound 0.015 µM, partner dose 2 µM) | 88.4 | 112 | 85.8 | 85.8 | 162 | 113
18 | COc1cc([C@@H]2c3cc4c(cc3[C@@H](O[C@@H]3O[C@@H]5CO[C@@H](C)O[C@H]5[C@H](O)[C@H]3O)[C@H]3COC(=O)[C@H]23)OCO4)cc(OC)c1O [etoposide] + CO[C@@H]1[C@H](N(C)C(=O)c2ccccc2)C[C@H]2O[C@]1(C)n1c3ccccc3c3c4c(c5c6ccccc6n2c5c31)C(=O)NC4 [Midostaurin] (first compound 0.02 µM, partner dose 0.08 µM) | 82.9 | 71.8 | 95.3 | 116 | 90.7 | 104
19 | Cn1cnc2c(F)c(Nc3ccc(Br)cc3Cl)c(C(=O)NOCCO)cc21 [selumetinib] + NC(=O)Nc1cc(-c2cccc(F)c2)sc1C(=O)N[C@H]1CCCNC1 [AZD7762] (first compound 0.015 µM, partner dose 0.02 µM) | 78.2 | 112 | 90.4 | 80.6 | 63.3 | 103
20 | C[C@]1(O)C[C@@H](c2nc(-c3ccc4ccc(-c5ccccc5)nc4c3)c3c(N)nccn32)C1 + CC(=O)O[C@@]12CO[C@@H]1C[C@H](O)[C@@]1(C)C(=O)[C@H](O)C3=C(C)[C@@H](OC(=O)[C@H](O)[C@@H](NC(=O)OC(C)(C)C)c4ccccc4)C[C@@](O)([C@@H](OC(=O)c4ccccc4)[C@H]21)C3(C)C [Docetaxel] (first compound 0.4 µM, partner dose 0.0001 µM) | 80.8 | 42.2 | 38.1 | 27.8 | 65.7 | 62.6
21 | CCN(CC)CCNC(=O)c1c(C)[nH]c(/C=C2\C(=O)Nc3ccc(F)cc32)c1C [sunitinib] + Cn1nnc2c(C(N)=O)ncn2c1=O [temozolomide] (first compound 0.4 µM, partner dose 2 µM) | 105 | 128 | 80.2 | 86.3 | 110 | 93.1
22 | CCN(CC)CCNC(=O)c1c(C)[nH]c(/C=C2\C(=O)Nc3ccc(F)cc32)c1C [sunitinib] + C[C@@H]1CCN(C(=O)CC#N)C[C@@H]1N(C)c1ncnc2[nH]ccc12 [CP690550] (first compound 0.4 µM, partner dose 1 µM) | 111 | 131 | 90.8 | 103 | 113 | 125
23 | Cn1cnc2c(F)c(Nc3ccc(Br)cc3Cl)c(C(=O)NOCCO)cc21 [selumetinib] + Cn1cc(/C=C2\C(=O)Nc3cccnc32)c2ccccc21 [GW441756] (first compound 0.015 µM, partner dose 0.4 µM) | 85.9 | 113 | 92.9 | 69 | 102 | 96.5

Source: the supplement of paper PMC4604168 (melanoma cell lines)
